Measured values published in the supplement of paper PMC6206098.
± gives the uncertainty stated by the source. Shown are siRNA guide strands that differ only in the seed, positions 2 to 7.

Assays:
[1] = test system: 3LL; test: cell viability relative to siNT1 control; higher = less toxic; conditions: concentration: 10 nM; 96 h; Mus musculus;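 also: Luminescence-based viability of cells reverse transfected in 384-well plates with lipid-complexed siRNAs built on a non-toxic 19mer backbone whose passenger strand carries 2′-O-methyl groups at positions 1 and 2, triplicates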
[2] = test system: H460; test: cell viability relative to lipid-only control; HeyA8 human ovarian and H460 human lung cancer; M565 mouse liver and 3LL mouse lung cancer; siNT1 is a non-toxic control siRNA; higher = less toxic; conditions: concentration: 10 nM; 96 h; Homo sapiens
Experimental: (§1)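 Arrayed screen of 4096 siRNA duplexes, each carrying one of all possible 6mer seeds at guide-strand positions 2-7 in a fixed neutral 19mer scaffold (constant flanks: U at position 1, then ACAUGUAAACCA, plus a 3' AA overhang). The passenger strand is 2'-O-methylated at positions 1-2 so only the guide strand loads into RISC. Duplexes were reverse-transfected at 10 nM with RNAiMAX in triplicate in 384-well plates; viability was read by CellTiter-Glo ATP content 96 h after transfection. Values are % viability normalised to lipid-only wells (HeyA8, H460, M565) or to siNT1 (3LL).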

[3] = test system: HeyA8; test: as above; conditions: concentration: 10 nM; 96 h; Homo sapiens
Experimental: as §1

[4] = test system: M565; test: as above; conditions: concentration: 10 nM; 96 h; Mus musculus
Experimental: as §1
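For cell viability relative to lipid-only control in this document: reverse lipid transfection in 384-well plates, in triplicate, of duplexes on a non-toxic 19mer backbone with passenger strand 2′-O-methylated at positions 1 and 2, luminescence viability read-out.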

Sequence | cell viability [1] | cell viability [2] | cell viability [3] | cell viability [4]
UCGUGGUACAUGUAAACCAAA | 41.5 ± 8.9% | 27 ± 6% | 39.7 ± 1.5% | 40.5 ± 9.6%
UCGUGUAACAUGUAAACCAAA | 95.3 ± 13% | 84.4 ± 4.8% | 83.2 ± 7.9% | 57.1 ± 6.8%
UCGUGUCACAUGUAAACCAAA | 73.2 ± 10% | 68.7 ± 15% | 65.8 ± 3.1% | 43.8 ± 9%
UCGUGUGACAUGUAAACCAAA | 89.6 ± 11% | 76.7 ± 10% | 84.8 ± 5.8% | 54.6 ± 1.7%
UCGUGUUACAUGUAAACCAAA | 90.2 ± 13% | 81.4 ± 14% | 72.5 ± 7% | 20.6 ± 2.6%
UCGUUAAACAUGUAAACCAAA | 95 ± 13% | 92.1 ± 21% | 84.1 ± 3.4% | 66.3 ± 5.6%
UCGUUACACAUGUAAACCAAA | 98.6 ± 9.7% | 65.5 ± 14% | 27.9 ± 6.8% | 30.5 ± 6.3%
UCGUUAGACAUGUAAACCAAA | 90.6 ± 12% | 85.6 ± 17% | 76.2 ± 12% | 58.6 ± 2.6%
UCGUUAUACAUGUAAACCAAA | 87.2 ± 12% | 85.1 ± 11% | 77.4 ± 9.3% | 66.8 ± 3.7%
UCGUUCAACAUGUAAACCAAA | 95.1 ± 12% | 69.8 ± 11% | 61.1 ± 5.5% | 32 ± 4.5%
UCGUUCCACAUGUAAACCAAA | 39.3 ± 5.9% | 31.2 ± 2.4% | 6 ± 0.91% | 15.1 ± 2.2%
UCGUUCGACAUGUAAACCAAA | 87.1 ± 16% | 67.2 ± 12% | 54.5 ± 6.3% | 39.2 ± 7%
UCGUUCUACAUGUAAACCAAA | 35.7 ± 8.9% | 53.3 ± 1.7% | 19.5 ± 0.12% | 16.9 ± 2.4%
UCGUUGAACAUGUAAACCAAA | 86.2 ± 11% | 93.6 ± 14% | 52 ± 6.2% | 45.5 ± 4.8%
UCGUUGCACAUGUAAACCAAA | 50.9 ± 10% | 21.4 ± 2.5% | 3.57 ± 0.53% | 13.3 ± 0.74%
UCGUUGGACAUGUAAACCAAA | 47.8 ± 8.4% | 51 ± 1.6% | 29.1 ± 1.5% | 22 ± 6%
UCGUUGUACAUGUAAACCAAA | 79.6 ± 16% | 71.3 ± 17% | 24.1 ± 0.46% | 13.6 ± 2.7%
UCGUUUAACAUGUAAACCAAA | 88.3 ± 14% | 67.6 ± 3.3% | 82.4 ± 12% | 80.1 ± 4.4%
UCGUUUCACAUGUAAACCAAA | 85.6 ± 14% | 72 ± 5.7% | 41.5 ± 5.8% | 88.1 ± 11%

Sequence | cell viability [1] | cell viability [2] | cell viability [3] | cell viability [4]
UCGUUUGACAUGUAAACCAAA | 88.1 ± 10% | 86.4 ± 17% | 76.6 ± 3.6% | 80.2 ± 7.3%
UCGUUUUACAUGUAAACCAAA | 93.7 ± 12% | 94.4 ± 30% | 76.8 ± 1.6% | 75.8 ± 11%
UCUAAAAACAUGUAAACCAAA | 96.4 ± 14% | 76.8 ± 10% | 89 ± 11% | 68.9 ± 14%
UCUAAACACAUGUAAACCAAA | 90.6 ± 17% | 48.8 ± 6.7% | 81.5 ± 11% | 67.1 ± 9.4%
UCUAAAGACAUGUAAACCAAA | 92.9 ± 15% | 79.5 ± 7.4% | 82.6 ± 5.8% | 66.6 ± 14%
UCUAAAUACAUGUAAACCAAA | 100 ± 16% | 62.3 ± 8.8% | 94.9 ± 16% | 74.7 ± 23%
UCUAACAACAUGUAAACCAAA | 95.3 ± 15% | 65.2 ± 9.9% | 84.9 ± 7% | 78.7 ± 17%
UCUAACCACAUGUAAACCAAA | 98.2 ± 12% | 36.7 ± 1.1% | 63.9 ± 3.2% | 59.6 ± 7.6%
UCUAACGACAUGUAAACCAAA | 96.7 ± 18% | 54.5 ± 3.6% | 86.5 ± 5.6% | 68.1 ± 12%
UCUAACUACAUGUAAACCAAA | 93.1 ± 15% | 65.3 ± 12% | 78.6 ± 9.5% | 80.5 ± 20%
UCUAAGAACAUGUAAACCAAA | 94.2 ± 13% | 68.2 ± 8.3% | 85 ± 7.8% | 62.8 ± 8.8%
UCUAAGCACAUGUAAACCAAA | 90.9 ± 12% | 56 ± 4.2% | 77.4 ± 4.5% | 62.6 ± 15%
UCUAAGGACAUGUAAACCAAA | 97.8 ± 15% | 50.9 ± 3.4% | 82.3 ± 9.4% | 59.3 ± 10%
UCUAAGUACAUGUAAACCAAA | 94.4 ± 12% | 51.5 ± 5.9% | 82.3 ± 6.9% | 64.4 ± 14%
UCUAAUAACAUGUAAACCAAA | 97.3 ± 18% | 56.1 ± 1.9% | 82.3 ± 3.2% | 73.7 ± 5.7%
UCUAAUCACAUGUAAACCAAA | 93.5 ± 14% | 53.9 ± 7.6% | 80.9 ± 8.3% | 61.7 ± 15%
UCUAAUGACAUGUAAACCAAA | 93.3 ± 19% | 67.3 ± 3.1% | 86.4 ± 8.8% | 79 ± 19%
UCUAAUUACAUGUAAACCAAA | 93.5 ± 16% | 54 ± 6.8% | 87.8 ± 15% | 67.2 ± 13%
UCUACAAACAUGUAAACCAAA | 92.5 ± 10% | 60.3 ± 3.3% | 85 ± 9.9% | 65.8 ± 7.7%

Sequence | cell viability [1] | cell viability [2] | cell viability [3] | cell viability [4]
UCUACACACAUGUAAACCAAA | 97.7 ± 15% | 62.3 ± 1.8% | 93.2 ± 11% | 74 ± 21%
UCUACAGACAUGUAAACCAAA | 92.6 ± 13% | 58.4 ± 6.7% | 80.7 ± 11% | 73.2 ± 14%
UCUACAUACAUGUAAACCAAA | 98.5 ± 8.4% | 53.4 ± 2.2% | 85 ± 4.3% | 76.7 ± 11%
UCUACCAACAUGUAAACCAAA | 93.8 ± 14% | 55.2 ± 4% | 86.2 ± 6% | 67.5 ± 6.2%
UCUACCCACAUGUAAACCAAA | 93.5 ± 14% | 55.7 ± 3.7% | 67.3 ± 3.5% | 23.6 ± 4.5%
UCUACCGACAUGUAAACCAAA | 102 ± 18% | 59 ± 5.3% | 91.6 ± 13% | 69.6 ± 7.2%
UCUACCUACAUGUAAACCAAA | 99.4 ± 16% | 49.9 ± 3.4% | 70.8 ± 6.5% | 69 ± 3.2%
UCUACGAACAUGUAAACCAAA | 99.5 ± 16% | 81.5 ± 12% | 85.7 ± 1.7% | 65.2 ± 13%
UCUACGCACAUGUAAACCAAA | 93.9 ± 13% | 53.8 ± 6.6% | 74.6 ± 3.3% | 68.7 ± 6.8%
UCUACGGACAUGUAAACCAAA | 99.7 ± 5.3% | 50.2 ± 1.8% | 88.7 ± 7% | 70.2 ± 16%
UCUACGUACAUGUAAACCAAA | 94.8 ± 7.1% | 62.3 ± 1.9% | 80.8 ± 5.3% | 72.3 ± 14%
UCUACUAACAUGUAAACCAAA | 98.9 ± 18% | 86.8 ± 21% | 86.5 ± 9.5% | 61.6 ± 8.8%
UCUACUCACAUGUAAACCAAA | 103 ± 12% | 51.8 ± 1.7% | 77.1 ± 4.5% | 69.6 ± 16%
UCUACUGACAUGUAAACCAAA | 95.7 ± 17% | 73.5 ± 10% | 86.6 ± 4.8% | 69.4 ± 13%
UCUACUUACAUGUAAACCAAA | 98.9 ± 18% | 66.8 ± 9.3% | 95.4 ± 12% | 73.1 ± 12%
UCUAGAAACAUGUAAACCAAA | 98.7 ± 15% | 63.8 ± 6.5% | 83.4 ± 8.6% | 75.3 ± 13%
UCUAGACACAUGUAAACCAAA | 91.1 ± 8.2% | 57.8 ± 9% | 86.7 ± 10% | 78.4 ± 16%
UCUAGAGACAUGUAAACCAAA | 97.8 ± 11% | 50 ± 3.2% | 93 ± 16% | 78.1 ± 2.3%
UCUAGAUACAUGUAAACCAAA | 89.2 ± 14% | 54.3 ± 2.4% | 83.7 ± 11% | 72.1 ± 12%
